Reference: the supplement of paper PMC11417369
The other results are listed elsewhere or left out.

tested on: PfAP2-HC AP2 domain (GST-tagged); assay: gcPBM binding intensity (ln(normalized median fluorescence intensity)); higher = stronger DNA binding
Summary of the method: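 The highest Masliner-normalised natural-log median intensity across replicate spots of either probe orientation is reported as binding intensity. GST-tagged P. falciparum DNA-binding domains expressed in E. coli were applied for 1 h to an Agilent 4 × 180k array of primer-extended double-stranded 36-bp intergenic genomic probes plus negative controls, and bound protein was detected with Alexa488 anti-GST antibody and scanned at 488 nm.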

Sequence | gcPBM binding intensity (ln)
GCTGAAAGGATAAAGGTGCATATTTTTTAAAAAATT [GTGCAC_site9487] | 9.43
TGTGTCAAATAATTAATGTCATATATATTTTGTATA [CACACA_negctrl_site1479] | 9.57
ACAAAATAAACGGCTGCACACAAGAAGCACAATATT [CACACA_site3690] | 10.6
GATAGAAAAAAATAATGTACACACACATATATGTTT [XGTACX_site392] | 10.1
GGCAGCAATTTAGTTACACACATATATAGGTATACA [CACACA_site76] | 9.76
TTTCTTTTTTCTGTTATTATTATAAAACGATATTTA [TGCATGCA_negctrl_site167] | 9.58
TACACATACCCATACACACGCATAGAAACATACGAA [CACACA_site5212] | 10.2
TATTTTTATTTTAATTGTACTTTTTAATTAATAATA [XGTACX_site8302] | 9.15
ATACATATTCTTATTTGTACTTATTATAAAATGGTC [XGTACX_site6584] | 9.56
TAACTGATATATAAAACACACATCATAAAAATATAA [CACACA_site6499] | 9.78
TTGCATCTACATTTATGTACATATCTTATGATAAAT [XGTACX_site2146] | 9.95
ACAATAATTTCCATCACACATATATTTATATATTAC [CACACA_site6003] | 9.8
AGATATATTTTTTAAATTTAAAAATTATAAAATTTA [CACACA_negctrl_site533] | 9.33
AAATATATCTTCTTTGCACACTTAAAGGGAAGTGAT [CACACA_site343] | 9.56
TTGAACCTGATAAATACACACAATATAGATTTTTTT [CACACA_site7091] | 9.65
TCAAAATGTTACAAATTATGTTGGCTAAAATTTTAA [TGCATGCA_negctrl_site188] | 9.33
AATTATACTCACGTTACACACACACTATATATATAT [CACACA_site9375] | 10.3
TATAATATAATATTTTGTACATATGATAAAAAAAAA [XGTACX_site6858] | 9.61
ACACATATAAATAAAACATGCATATGTAAATATATA [TGCATGCA_site403] | 10.1

Sequence | gcPBM binding intensity (ln)
ATTTATATATAATATACACACATATAATACCCATAT [CACACA_site4548] | 10
TTTTTTAACTGTATGATGTTATATTAAAAATAAAAA [GTGCAC_negctrl_site463] | 9.12
AACGCACGAGGACACACACACATATTTATATTTATA [CACACA_site6608] | 11.4
TTTAATATTAGCATATGTACACAAATCACACGGAAA [XGTACX_site2473] | 9.79
TATATTATGACCACCACACACCTATACACATAACAT [CACACA_site7199] | 10.1
TAATCCTTTCAATATTGTACACATTTGTGTTAAGAA [XGTACX_site1275] | 9.56
ATTTAAAAAAAAAAAAAAAAAAAAAAAAAAAGAAAA [CACACA_negctrl_site722] | 9.02
ATATATTTTATATAATGTACATAAACCGCACACATA [XGTACX_site6061] | 9.94
TTTCAAATTTAATACACACACAAGTATATATCTATC [CACACA_site7782] | 10
ATAATATAAATACAAACACACAATTGCGTCCACATT [CACACA_site5039] | 10.1
TCATACGAAATATAAACACACATACAATAAATAAAT [CACACA_site5156] | 10.3
ATTTAATTTGTTCTTACACACACATATATATATATT [CACACA_site8310] | 10.2
TCAAATATATAGAATACACACATGGATATAAGAAAT [CACACA_site4065] | 10
CGTTTTAATAAGATCACACATATAATATATATATAT [CACACA_site5159] | 9.59
ATTATAACCATATACACACCCATATAAATAAATATA [CACACA_site6926] | 10.5
GGACAAGAATAGTGCACATGCAATGTTATTTTTTAT [TGCATGCA_site450] | 9.77
ATATTAAATGTTATCACACACATAATTACTTCCATA [CACACA_site7160] | 10
TATTAAATGGCCATTACATGCAATTATTTCTAATAA [TGCATGCA_site275] | 9.43
GAATAATATGGACATACACACATATACATACATATA [CACACA_site2114] | 10.1

Sequence | gcPBM binding intensity (ln)
TTATTTCATTCTTGAAGTACGTGAAAAATGAAAACA [XGTACX_site4089] | 9.44
ACATATGAATATAATACACACTTGTATTATTAATAT [CACACA_site8546] | 9.79
AAAAAAAAAAAAAGAGTGCAAACTATGATAATTTAA | 9.79
TTACCTTTATTGTATGAACACACATAAGCTGATACA [CACACA_site9334] | 9.73
TTAGTTATTAAAAAAAGTACATAAGTAGATATCATC [XGTACX_site8712] | 9.66
TATATATATACATATTGTACATGTGTATATTTTTTT [XGTACX_site361] | 9.75
AAAATTTAATATAATGCACACATAAAAAAAAAAAAA [CACACA_site7923] | 9.68
CCATTTTTTTTATACGCACACGTCATACTTTTAAAA [CACACA_site4988] | 10.1
TATAAAATATAATTAGCACACATATATAAAATATAT [CACACA_site9355] | 9.75
AATATATGTAATATATGTACTTAATTATATTTTAAT [XGTACX_site4382] | 9.57
TACTAATATGATATATAAATATTGTTATATAATAAT [XGTACX_negctrl_site227] | 9.52
TGAATACAAATTTACGCATGTAATTTCCAGAGGGAG [TGCATGCA_site769] | 9.64
AAAATAAAAGAAAAAAGTACAAAATCAGATTAATTA [XGTACX_site8413] | 9.72
GTATATTTTTAAAGGTGTACTTTTTTTTTTTTTTTT [XGTACX_site721] | 9.66
ATATAAAACTATAATACACACATAAAATATATTATA [CACACA_site6588] | 9.79
TATATTTATTTATTCTGTACTGAAGACAGTTATGTA [XGTACX_site8857] | 9.58
ATAAATATATATATAGTGCATATAAGCCACCTTCAA [GTGCAC_site9628] | 9.69
TATATAATACAACATGCACACATATATATGTGAATC [CACACA_site8794] | 9.94
